Laboratory results reported in the supplement of paper PMC11417369.
± gives the standard deviation of the averaged measurements. Some of the results follow.

Test system: PfAP2-EXP AP2 domain (GST-tagged)
Test: gcPBM binding intensity (ln(normalized median fluorescence intensity)); higher = stronger DNA binding
How it was run: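 In this array assay, P. falciparum DNA-binding domains with a GST tag, expressed in E. coli, were applied for 1 h to primer-extended double-stranded 36-bp intergenic genomic probes and negative controls on an Agilent 4 × 180k array. Bound protein was visualised with Alexa488 anti-GST antibody at 488 nm. Binding intensity is the highest Masliner-normalised natural-log median intensity across replicate spots of either probe orientation.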

| Sequence | gcPBM binding intensity (ln) |
| --- | --- |
| TATGGAAGAAAATATACACACAAAAAAAAAAAATGT [CACACA_site1486] | 8.79 ± 0.48 |
| AATTTATTATTTGTATGTACTCATATGATTCACTTA [XGTACX_site2797] | 8.79 ± 0.42 |
| ATACTTTTATTTTTGGTGCATATATCATGTAGACGT | 9.025 ± 0.035 |
| AAATGAAATAAATGTAGTACACATATACAATATATA [XGTACX_site6951] | 8.62 ± 0.22 |
| TGTATATCATATATTTGTACTCAATTAATATAAACA [XGTACX_site3970] | 8.38 ± 0.38 |
| TATTTTTATACAATTTAACACGGGTTATAAAATGTA [CACACA_negctrl_site566] | 8.34 ± 0.45 |
| ACATCTAATTTGTATACACACAATAATAAATGGTGA [CACACA_site824] | 8.37 ± 0.38 |
| TTGTATATATGACTTTTTTATATTTCAATTTTGTGC [CACACA_negctrl_site296] | 8.34 ± 0.34 |
| TATATATATTTATAATGTACATATTTTTTTTTATTT [XGTACX_site4761] | 8.71 ± 0.37 |
| GAGATAAAATAAAACACACACATATATTTATATAAC [CACACA_site7098] | 8.75 ± 0.42 |
| TATTAATTTTTAAACATAATTTTTCGTATAATATAT [CACACA_negctrl_site762] | 8.18 ± 0.38 |
| TTTACTTTCTTATTTTCACACATTTAAAAAAAAATT [CACACA_site5949] | 8.62 ± 0.49 |
| TTTTTATTAAAATGTATTTTAGGAAAAAACAAAAAA [XGTACX_negctrl_site437] | 8.23 ± 0.45 |
| TTCCCTTTTGTAAAATGTACATATATATTTAAACAA [XGTACX_site3263] | 8.7 ± 0.38 |
| TAAGTTCCCTTTGAATGTACATATAATGAAAAGAAA [XGTACX_site826] | 8.76 ± 0.37 |
| AAAAAACTTTTAAGCACACACATAGATAATATAGAT [CACACA_site6835] | 8.88 ± 0.58 |
| TTTTTTTTTTTTGTCACACATATTTGTATTAATCAT [CACACA_site5235] | 8.48 ± 0.61 |
| CAACATTTGAAACACACACACATACAAACAAACAAA [CACACA_site3306] | 8.89 ± 0.47 |
| TGAAATGGAAACAACTGTACAAAATAAATATGATAT [XGTACX_site1311] | 8.98 ± 0.53 |

| Sequence | gcPBM binding intensity (ln) |
| --- | --- |
| AATATTAACAATCGCACACATATTATTTTTCCAAAA [CACACA_site4982] | 8.54 ± 0.4 |
| ATATAAATATAGCATACACACAAAAAAATAAAATAA [CACACA_site2333] | 8.78 ± 0.52 |
| TAAACAAAATATATATGTACATATATATATATATAT [XGTACX_site6502] | 9.97 ± 0.42 |
| CATTAATAACAAAGTTGTACAAGATAATATTATATG [XGTACX_site6832] | 8.96 ± 0.31 |
| ATCTAGCCATTTTTTAGTACACATAAATAAAAAAAA [XGTACX_site1257] | 8.715 ± 0.007 |
| TTTTATTTGACAAGCACACACTTAAATATATTTATA [CACACA_site7557] | 8.6 ± 0.45 |
| ACATAAGAAGTTATATGTACATATATTTTTTAAATT [XGTACX_site8078] | 8.4 ± 0.24 |
| AAAACATTTTCAAACTGTACACATAGAACTATGCAT [XGTACX_site4087] | 8.61 ± 0.35 |
| TACACAAGAAAATTCACACACACACGGATATTTATA [CACACA_site7765] | 8.66 ± 0.47 |
| ACGTACTGCCCTAAAGTGCATATATAATATAAACGA [GTGCAC_site9911] | 8.66 ± 0.24 |
| GTATCGAAGTAAATACGTACTTAAATATGTTTAAAA [XGTACX_site1353] | 8.34 ± 0.32 |
| GTATTTTAATATAAATGTACATAAATGTTATATATA [XGTACX_site3475] | 8.35 ± 0.3 |
| AATATTGTATATAATAAACACACAATATTAAAAATA [CACACA_site8262] | 8.4 ± 0.4 |
| CTTTAAACCCTGAACACACACAAATACAGACAAAAA [CACACA_site247] | 8.71 ± 0.54 |
| AGGATATATAATTAAGTGCATTAATTCAAAATAAAA [GTGCAC_site9702] | 8.74 ± 0.12 |
| CATATATAAATCATGTGTACGTATTGAGTATCTACT [XGTACX_site6278] | 8.66 ± 0.18 |
| TTATTATTTTATAACACACACATATATATTATATCT [CACACA_site1434] | 8.48 ± 0.31 |
| ATAAGATATGTATATACACACATTTATTTACCTATA [CACACA_site7521] | 8.66 ± 0.38 |
| ATATGACTTAAATATGTGCGCATTTTTTTTTTTTTT | 8.64 ± 0.38 |

| Sequence | gcPBM binding intensity (ln) |
| --- | --- |
| ATATTTTCTAATCAATGTACTTATTCTACACATTAA [XGTACX_site5774] | 8.69 ± 0.37 |
| TATATTTGGAAACACACACACAAAAAAAAAAAAAAA [CACACA_site2474] | 8.19 ± 0.43 |
| CACCTGCACGATTGCACACAAATATGTTTTGAAGAT [CACACA_site2103] | 8.91 ± 0.042 |
| ACTACATAAAATGACACACACAAACTTTAAAATTTA [CACACA_site3474] | 8.41 ± 0.59 |
| ATATTTTATGTAAAGGTGCAAAACAACATTAAAAAA | 9.22 ± 0.11 |
| AACACATACAGACACACACACAAAAAAAAAAAAAAA [CACACA_site6322] | 8.27 ± 0.49 |
| TAAAACATGTTTTTATATATTATTATTATATTTATA [XGTACX_negctrl_site8] | 8.38 ± 0.4 |
| ACCCAATTTTTTAGTACACACATATAAATATATAAA [CACACA_site4944] | 8.68 ± 0.17 |
| AAATAACTCATGGGTTGTACTTAAAAAAAAAAAGAT [XGTACX_site4168] | 8.49 ± 0.75 |
| AAACCTTTAGAAAATCGTACAAAACATAACCACCTA [XGTACX_site1098] | 8.81 ± 0.61 |
| ATTTTTTTTTTTTGTTTTTTCTTACAAATTAAATGA [CACACA_negctrl_site1457] | 8.38 ± 0.49 |
| AAACAAAAGTAGAAGGTAGAGTATTTTATATTTAAA [GTGCAC_negctrl_site503] | 8.39 ± 0.45 |
| CTCTTGTCATTTTGCACACACACATGGATAGGTTAT [CACACA_site5655] | 9.14 ± 0.23 |
| TTTTTTTTTTTTCACGTGCACTATACATATAAGTAA | 9.01 ± 0.13 |
| ATATATACATTTCTATGTACATATGTATATATGTAT [XGTACX_site1522] | 8.54 ± 0.28 |
| ATAAAAGAAAACAATAGTACTTTAGTTTTTCTTTTT [XGTACX_site5686] | 8.36 ± 0.33 |
| TTAATCTAGAGAAATTGTACATTTTATTAACACAAT [XGTACX_site1190] | 8.26 ± 0.33 |
| TACCAAAATAGACACACACACAAAATATGTAAATAT [CACACA_site6963] | 8.59 ± 0.45 |
| TATAAATAAATTTATACACACACACCCATATATATA [CACACA_site8183] | 8.88 ± 0.2 |
